Laboratory results published in PubChem BioAssay AID1963576 (National Center for Advancing Translational Sciences (NCATS), 2024).
In all, about 46,000 compounds went through this assay and about 60 (0.1%) were called active. About 3% were inconclusive and are not listed. Calls follow the shape of the dose curve; as a rule, active = well fitted inhibition curve with a large enough effect; inconclusive = small, poorly fitted or top-dose-only effect; inactive = no such curve, though single readings can be large or run the other way. The list shows a part of the results.

Assay: Primary qHTS assay for Inhibitors of ovarian cancer metastasis using an organotypic tumor microenvironment (TME) model. Also: nearly all actives have a fitted effect of over 65% in size.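 As to activity change, negative = inhibition: plate controls were DMSO wells for no effect and tomatine positive control wells for full effect.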
Conditions: SKOV3ip1-GFP adhesion/invasion on 3D omental model, fluorescence; series mostly up to 45.8 µM; activity change, negative = inhibition: at the top concentration
Summary of the method: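 Primary human omental fibroblast/mesothelial 3D culture pre-formed 48 h. SKOV3ip1-GFP cells added with compounds (0.36-46 umol/L), incubated 2 h RT/16 h 37 C, fixed; GFP cells quantified at 488/509 nm.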

Activity change, negative = inhibition, inactive:
COc1cccc(C(=O)NCCSc2c(-c3ccc(F)cc3)[nH]c3ccccc23)c1OC 17.6%
Cc1c(NC(=O)c2ccc(OC(C)C)cc2)cccc1-c1nc2ncccc2o1 6.56%
CC(Oc1ccc(F)cc1)C(=O)NCC1(N(C)C)CCCCC1 (stereo not given) -0.317%
COc1ccc(-c2cc(C(F)(F)F)c(C#N)c(SCC(=O)Nc3ccc(F)cc3)n2)cc1 11.1%
Cc1ccc(S(=O)(=O)N2CCCc3cc(NS(=O)(=O)c4ccc(F)c(C)c4)ccc32)cc1 -4.92%
COc1ccc(-c2cn3nc(N4CCC(C(=O)NCc5ccccc5F)CC4)sc3n2)cc1 -4.96%
CCCS(=O)(=O)Nc1cc(-c2cn3cccc(C)c3n2)ccc1C -22%
CC(C)Oc1ccc(CNC(=O)CCCn2c(=O)c3cccn3c3ccccc32)cc1 -0.759%
CCc1ccc(CNC(=O)c2ccc3c(c2)N=C(C)c2cc(C)ccc2S3)cc1 0.527%
CCOC(=O)c1c(NC(=O)CS(=O)(=O)c2ccc(C)cc2)sc2c1CCCCC2 -9.99%
Cn1c(N2CCCCS2(=O)=O)nc(C(=O)NCc2ccc(F)cc2)c(O)c1=O -4.96%
COc1ccc(CNc2ncnc3onc(C)c23)cc1 -0.106%
CCCNC(=O)c1ccc2c(c1)ncn2-c1ccc(C)cc1C -4.16%
COc1ccc(NC(=O)Cn2c(=O)oc3cc(S(=O)(=O)NC4CCCC4)ccc32)cc1OC -2.16%
Cc1ccc(-c2nc3cccnc3s2)cc1NC(=O)C(C)C 1.24%
CC1=Nc2cc(C(=O)NCCc3ccc(Cl)cc3)ccc2Sc2ccc(C)cc21 -4.31%
Clc1ccc(-c2nc3sccn3c2C=NOCc2ccc(Cl)c(Cl)c2)cc1 4.19%
Cc1ccc(C(C)C)c(OCC(=O)Nc2cccc(NC(=O)c3ccco3)c2)c1 -3.27%
Cn1c(=O)c2c(SCC(=O)N3CCc4ccccc43)nc(-c3ccccc3Cl)nc2n(C)c1=O 1.14%
CCOc1ccc(-n2c(CCC(=O)O)ccc2-c2ccc(Br)cc2)cc1 -3.58%
CCN(c1cc(C)cc(C)c1)S(=O)(=O)c1nnc(NC(=O)c2cccs2)s1 -8.03%
COC(=O)C(Cc1c[nH]c2ccccc12)NC(=O)COc1ccc(Cl)cc1Cl (stereo not given) 6.56%
Cc1cccc(NS(=O)(=O)c2ccc3[nH]c(=O)ccc3c2)c1C -13.4%
CCN(C(=O)Cc1nc(-c2ccc(OC)cc2)no1)c1cccc(Cl)c1 18.1%
O=C(Cn1c(=O)nc(-c2ccccc2)c2ccccc21)Nc1ccc(Cl)c(C(F)(F)F)c1 0.153%
COc1cccc(C2=CC(c3ccc(OC)c(OC)c3OC)n3ncnc3N2)c1 (stereo not given) 8.05%
COc1ccccc1OCCn1c(-c2ccc(Cl)cc2)nc2ccccc2c1=O -22.2%
Cc1oc2ccc(O)c(CN(C)Cc3ccccc3)c2c1C(=O)Nc1cccc(C(F)(F)F)c1 -9.73%
COc1ccc(C(=O)c2cn(CC(=O)Nc3ccc4c(c3)OCCO4)c3ccc(OC)cc3c2=O)cc1 16.6%
CCC(C)NC(=O)Cn1ncc2c([nH]c3ccc(C)cc32)c1=O (stereo not given) -2.69%
O=C(Nc1nc2n(n1)C(c1ccccc1)C=C(c1ccccc1)N2)c1ccc(Cl)c([N+](=O)[O-])c1 (stereo not given) 1.23%
CCOC(=O)c1ccc(N2C(=O)c3n[nH]c(-c4cccs4)c3C2c2ccc(C(C)(C)C)cc2)cc1 (stereo not given) 8.31%
CCOc1ccccc1NC(=O)Cn1c(=O)n(Cc2ccccc2)c(=O)c2c(C)c(C)sc21 -7.59%
CCc1cccc(NC(=O)Cn2nc(-c3ccc(OC)cc3)ccc2=O)c1 1.29%
CCCCC(Sc1nc2cc3c(cc2c(=O)n1CCCC(=O)NCc1ccc(OC)cc1)OCO3)C(=O)OCC (stereo not given) -8.64%
COc1cc(NC(=O)C2CCCN(S(=O)(=O)c3ccc4c(c3)oc(=O)n4C)C2)c(C(=O)O)cc1OC (stereo not given) -21.8%
CC(C)OCCCNC(=O)c1cc2c(-c3ccc(Cl)cc3)nn(C)c2s1 -3.1%
COc1ccc2c(C)c(CC(=O)NCc3ccc(C)cc3)c(=O)oc2c1OC 15.5%
CCOC(=O)c1[nH]c(C)c(CCC(=O)NCc2ccc(OCC)cc2)c1C 23.3%
O=C(NCc1ccccc1F)c1ccc(CN2CC(=O)N3CCCCC3C2=O)cc1 (stereo not given) -13.8%
CCc1ccc(CNC(=O)c2cnc3sc4cc(OC)ccc4n3c2=O)cc1 7.18%
CCOC(=O)c1sc2cccc(F)c2c1S(=O)(=O)N1CCN(c2cccc(Cl)c2)CC1 5.26%
N#C/C(=C\c1ccc(Cl)cc1)c1nc(-c2cc3ccccc3oc2=O)cs1 -12.1%
COc1cccc(C(=O)N2c3cc(C)ccc3C(C)(c3ccccc3)CC2(C)C)c1 (stereo not given) 4.68%
Cc1ccc(NC(=O)CSc2nc3c(oc4ccccc43)c(=O)n2-c2ccc(F)cc2)c(C)c1 -3.28%
CCCCOc1ccccc1C(=O)N(Cc1ccc(C)o1)C1CCS(=O)(=O)C1 (stereo not given) -15.8%

outcome, inactive:
Cc1ccc(S(=O)(=O)c2cn(CC(=O)Nc3ccc(C)c(Cl)c3)c3ccc(C)cc3c2=O)cc1
Cc1ccc(NCc2cccn2-c2nnc(N3CCC(C(=O)NC(C)C)CC3)s2)cc1
CN(C)CCNC(=O)c1ccc(-n2c(-c3ccccc3)cc3c2CCCC3)cc1
Cc1ccc(-c2ccc(=O)n(Cc3cc(C)ccc3C)n2)cc1
CCC(CC)C(=O)NC1CC(=O)N(c2ccc3c(c2)OCCO3)C1 (stereo not given)
Cc1nc(-c2ccccc2)sc1-c1ccc(SCC(=O)NCc2ccc(F)cc2)nn1
CCOc1ccc(-n2c(SCC(=O)N3CCCC3)nc3c([nH]c4ccccc43)c2=O)cc1
CCc1ccc(CNC(=O)CCSCc2ccccc2F)cc1
COc1cc(NC(=O)Cn2c(=O)oc3cc(S(=O)(=O)N4CCCCCC4)ccc32)cc(OC)c1
Cc1ccc(NC(=O)c2c(C)oc3ccc(O)c(CN4CCCCCC4)c23)c(C)c1
Cc1cc(C)c(NC(=O)Cn2c(=O)n(Cc3ccc4c(c3)OCO4)c(=O)c3ccc(C(=O)NC4CCCCC4)cc32)c(C)c1
CCc1ccc(NC(=O)C(=O)NCCc2csc(-c3ccc(C(F)(F)F)cc3)n2)cc1
CCCn1c2ccccc2c2cnn(CC(=O)N3CCC(C)CC3)c(=O)c21
O=C(O)CSc1c2c(nc3cc(C(=O)Nc4ccc(F)c(Cl)c4)ccc13)CCC2
